These results are taken from the antibiotic and cytotoxicity screens of Wong et al. (2023).

One experiment has as its system HSkMC. Briefly: cytotoxicity call (relative viability < 0.9). The note with it: 10 µM.
A further experiment relates to HepG2. Briefly: cytotoxicity call (relative viability < 0.9). The note with it: 10 µM.
The next experiment has as its system S. aureus RN4220. The experiment in a line: growth inhibition call (relative growth <= 0.2). The note with it: 50 µM.

Each structure is given as a SMILES string. This is one part of the list.

As to `O=C(C[C@H]1C=C[C@H](NC(=O)CN2CCOCC2)[C@@H](CO)O1)NCCc1ccncc1`, the cytotoxicity call in the experiment on HSkMC and in the experiment with HepG2 was “inactive” in each case. In the experiment with S. aureus RN4220, the growth inhibition call was “inactive”.

As for `C[C@@H]1CN([C@@H](C)CO)C(=O)c2cc(NS(C)(=O)=O)ccc2O[C@H]1CN(C)S(=O)(=O)c1ccc(Cl)cc1`, the cytotoxicity call in the experiment on HSkMC and in the experiment on HepG2 was “inactive” throughout. For the same compound, the growth inhibition call in the experiment on S. aureus RN4220 is “inactive”.

With `C[C@H](CO)N1C[C@H](C)[C@@H](CN(C)Cc2ccncc2)OCCCC[C@H](C)Oc2ccc(NS(C)(=O)=O)cc2C1=O`, the cytotoxicity call in the experiment with HSkMC and in the experiment with HepG2 was “inactive” in each case. The growth inhibition call in the experiment on S. aureus RN4220 was “inactive”.

Consider `O=C(CCCCC(=O)N/N=C/[C@H](O)[C@@H](O)[C@H](O)[C@H](O)CO[C@H]1O[C@H](CO)[C@H](O)[C@H](O)[C@H]1O)NO`, for which the cytotoxicity call in the experiment on HSkMC (human skeletal muscle cells) and with HepG2 was “inactive” each time. The growth inhibition call in the experiment on S. aureus RN4220 was “inactive”.

Turning to `C[C@@H]1CN([C@H](C)CO)S(=O)(=O)c2ccc(C#Cc3ccncc3)cc2O[C@@H]1CN(C)C(=O)Nc1ccc2c(c1)OCO2`, in the experiment with HSkMC, the cytotoxicity call is “inactive”. Moreover, in the experiment on HepG2, the cytotoxicity call is “active”. Besides, the growth inhibition call with S. aureus RN4220 was “inactive”.

On to `CNC[C@@H]1OCCCC[C@@H](C)Oc2ccc(NS(=O)(=O)c3cn(C)cn3)cc2C(=O)N([C@@H](C)CO)C[C@@H]1C`, for which the cytotoxicity call in the experiment with HSkMC and in the experiment with HepG2 was “inactive” each time. Further, the growth inhibition call in the experiment on S. aureus RN4220 is “inactive”.

Take `C[C@H](CO)N1C[C@H](C)[C@H](CN(C)CC2CC2)OCCCC[C@H](C)Oc2ccc(NC(=O)Nc3cccc4ccccc34)cc2C1=O`: the cytotoxicity call in the experiment with HSkMC and in the experiment with HepG2 was “inactive” in each case. Also, the growth inhibition call in the experiment with S. aureus RN4220 is “inactive”.

As to `O=C(NCCCc1nn[nH]n1)c1[nH]nc2c1CCC2`, the cytotoxicity call in the experiment with HSkMC and in the experiment with HepG2 was “inactive” each time. Besides, the growth inhibition call in the experiment on S. aureus RN4220 is “inactive”.

Turning to `COc1ccc(S(=O)(=O)N(C)C[C@H]2Oc3ccc(NC(=O)C4CC4)cc3CC(=O)N([C@@H](C)CO)C[C@H]2C)cc1`, the cytotoxicity call in the experiment with HSkMC and with HepG2 was “inactive” throughout. Further, in the experiment with S. aureus RN4220, the growth inhibition call is “inactive”.
